{
  "source": "paper PMC4336329",
  "about": "(PLoS ONE, 2015)",
  "note": "Hit rate of the full screen: of about 310,000 compounds, about 2,200 (0.71%) showed an effect of 50% or more. The effect is printed as a negative number. The list shows a part of the results. Where a SMILES comes first, the peptide text is derived from it. The star is where a group is joined. Boc = CC(C)(C)OC(=O)*",
  "data": [
    {"target": "human ether-à-go-go-related gene (hERG) potassium channel (human, UniProt Q12809)", "sequence (Q12809 whole entry, looked up)": "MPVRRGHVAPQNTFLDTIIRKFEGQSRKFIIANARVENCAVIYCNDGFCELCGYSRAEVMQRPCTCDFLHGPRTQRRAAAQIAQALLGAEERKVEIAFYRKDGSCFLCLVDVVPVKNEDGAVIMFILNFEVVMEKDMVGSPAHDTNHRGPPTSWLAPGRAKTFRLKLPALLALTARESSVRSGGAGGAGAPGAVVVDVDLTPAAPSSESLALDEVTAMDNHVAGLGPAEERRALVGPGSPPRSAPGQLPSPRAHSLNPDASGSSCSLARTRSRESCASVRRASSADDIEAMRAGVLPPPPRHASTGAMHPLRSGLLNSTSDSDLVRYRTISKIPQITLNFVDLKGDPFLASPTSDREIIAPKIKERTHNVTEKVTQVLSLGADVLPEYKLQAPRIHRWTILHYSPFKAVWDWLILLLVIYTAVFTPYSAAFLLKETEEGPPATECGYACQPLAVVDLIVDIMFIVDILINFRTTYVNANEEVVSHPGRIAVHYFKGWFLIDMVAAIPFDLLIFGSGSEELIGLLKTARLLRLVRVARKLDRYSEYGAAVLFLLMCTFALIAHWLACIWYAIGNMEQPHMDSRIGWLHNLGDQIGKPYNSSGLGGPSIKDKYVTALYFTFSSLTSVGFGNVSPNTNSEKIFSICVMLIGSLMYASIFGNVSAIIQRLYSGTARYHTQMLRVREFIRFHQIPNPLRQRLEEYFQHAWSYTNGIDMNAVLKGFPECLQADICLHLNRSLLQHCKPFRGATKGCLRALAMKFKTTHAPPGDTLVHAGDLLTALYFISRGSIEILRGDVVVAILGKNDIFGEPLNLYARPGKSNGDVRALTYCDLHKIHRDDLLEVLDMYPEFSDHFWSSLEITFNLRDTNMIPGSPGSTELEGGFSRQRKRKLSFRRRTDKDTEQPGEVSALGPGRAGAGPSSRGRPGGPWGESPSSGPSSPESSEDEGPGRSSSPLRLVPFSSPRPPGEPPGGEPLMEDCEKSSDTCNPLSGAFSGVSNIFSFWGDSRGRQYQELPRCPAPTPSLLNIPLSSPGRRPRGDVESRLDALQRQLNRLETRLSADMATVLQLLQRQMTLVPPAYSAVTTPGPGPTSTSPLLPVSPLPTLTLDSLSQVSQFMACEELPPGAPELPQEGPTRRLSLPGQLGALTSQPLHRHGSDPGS", "test": "primary screen, population patch clamp on CHO cells stably expressing hERG", "units": {"hERG current change (%, negative = inhibition) at 1uM": "%"}, "values": [
      {"smiles": "CCOC(=O)N1CCN(c2nc3ccccc3nc2C(C#N)C(=O)NCCc2ccccc2)CC1", "note": "(stereo not shown)", "hERG current change (%, negative = inhibition) at 1uM": 10.5},
      {"smiles": "O=C(c1ccc(N2CCN(C(=O)c3cccc(F)c3)CC2)cc1)c1cccc(F)c1", "hERG current change (%, negative = inhibition) at 1uM": -2.43},
      {"smiles": "CN(C)C=O.N#Cc1ccc(Cl)cc1NC(=O)CSc1nc2nc(-c3cccs3)cc(C(F)(F)F)c2c(=O)[nH]1", "hERG current change (%, negative = inhibition) at 1uM": 7.28},
      {"smiles": "Cl.O=C(NNC(=O)c1cccc(C(F)(F)F)c1)c1ccncc1", "hERG current change (%, negative = inhibition) at 1uM": 9.54},
      {"smiles": "O=[N+]([O-])c1cccc(N2Cc3ccccc3C2)c1", "hERG current change (%, negative = inhibition) at 1uM": 0.423},
      {"smiles": "CCCC(C(=O)NC1CCCC1)N(Cc1cccs1)C(=O)c1snc(C(N)=O)c1N", "note": "(stereo not shown)", "hERG current change (%, negative = inhibition) at 1uM": -5.88},
      {"smiles": "COCCN(CCOC)c1nc(S(=O)(=O)c2ccc(C)cc2)c(Cl)s1", "hERG current change (%, negative = inhibition) at 1uM": 9.8},
      {"smiles": "O=C(NCC(=O)N1CCCC1)c1ccc(Br)o1", "hERG current change (%, negative = inhibition) at 1uM": 14.9},
      {"smiles": "CC(C)NC(=O)CC(c1ccccc1)c1cc(Br)ccc1O", "note": "(stereo not shown)", "hERG current change (%, negative = inhibition) at 1uM": -0.852},
      {"smiles": "O=C(Oc1ccccc1C(=O)Nc1ccccc1)c1ccccc1Br", "hERG current change (%, negative = inhibition) at 1uM": 14.1},
      {"smiles": "Cc1ccc(C(=O)Nc2ccc([N+](=O)[O-])cn2)o1", "hERG current change (%, negative = inhibition) at 1uM": 1.25},
      {"smiles": "CCNS(=O)(=O)c1ccc(CCC(=O)NCCc2ccc(OC)cc2)cc1", "hERG current change (%, negative = inhibition) at 1uM": 3.64},
      {"smiles": "CCc1c(C)nc(N2CCN(c3cccc(OC)c3)CC2)[nH]c1=O", "hERG current change (%, negative = inhibition) at 1uM": 9.06},
      {"smiles": "CCC(C(=O)NCc1ccco1)n1nc(C)n2c(cc3occc32)c1=O", "note": "(stereo not shown)", "hERG current change (%, negative = inhibition) at 1uM": 12.9},
      {"smiles": "O=C(CNS(=O)(=O)c1cccc(Br)c1)NCCCc1ccccc1", "hERG current change (%, negative = inhibition) at 1uM": 13.9},
      {"smiles": "Cc1ccc(NS(=O)(=O)c2ccc(CCC(=O)N3CCCC3)cc2)cc1", "hERG current change (%, negative = inhibition) at 1uM": 15.2},
      {"smiles": "Cc1cccc(NC(=O)c2ccc(N3C(=O)C4CCCCC4C3=O)cc2)c1C", "note": "(stereo not shown)", "hERG current change (%, negative = inhibition) at 1uM": 11.3},
      {"smiles": "CCOC(=O)C1(c2ccccc2)NC(c2ccccc2C)C2C(=O)N(c3ccc4c(c3)OCO4)C(=O)C21", "note": "(stereo not shown)", "hERG current change (%, negative = inhibition) at 1uM": -4.19},
      {"smiles": "CCn1c(=O)cc(OCC(=O)NCCCN2CCN(c3cccc(Cl)c3)CC2)c2ccccc21", "hERG current change (%, negative = inhibition) at 1uM": -14.8},
      {"smiles": "CNc1snc(C)c1C(=O)OC(C)C(=O)Nc1cccc(OC)c1", "note": "(stereo not shown)", "hERG current change (%, negative = inhibition) at 1uM": 1.63},
      {"smiles": "CN(C)S(=O)(=O)c1cccc(C(=O)NCc2ccco2)c1", "hERG current change (%, negative = inhibition) at 1uM": 15.3},
      {"smiles": "C=CCOC(=O)C(C#N)c1nc2ccccc2nc1N1CCN(c2ccccc2OC)CC1", "note": "(stereo not shown)", "hERG current change (%, negative = inhibition) at 1uM": 10.8},
      {"smiles": "O=C(CCSc1ccccc1)Nc1ncccn1", "hERG current change (%, negative = inhibition) at 1uM": 16},
      {"smiles": "COc1ccc(OC)c(Nc2c3c(nc4ccccc24)CCC3)c1", "hERG current change (%, negative = inhibition) at 1uM": -14.8},
      {"smiles": "O=C(NCCc1ccc(Cl)cc1)c1ccc(CNc2c(N3CCOCC3)c(=O)c2=O)cc1", "hERG current change (%, negative = inhibition) at 1uM": 7.76},
      {"smiles": "Cc1cccc(N(C)c2cc(C)nc3nc(C)nn23)c1", "hERG current change (%, negative = inhibition) at 1uM": -1.14},
      {"smiles": "COc1ccc(-n2nc3c(c2NC(=O)C(C)Cl)CSC3)cc1", "note": "(stereo not shown)", "hERG current change (%, negative = inhibition) at 1uM": 14.4},
      {"smiles": "O=C(Nc1ccc(N2CCCC2)cc1)c1ccc(Br)cc1", "hERG current change (%, negative = inhibition) at 1uM": 19.5},
      {"smiles": "COc1ccc(C)cc1NC(=O)CCNC(=O)Cn1cnc2ccccc2c1=O", "hERG current change (%, negative = inhibition) at 1uM": 10.3},
      {"smiles": "Cc1ccc(CC(=O)NCCCc2ccccc2)cc1", "hERG current change (%, negative = inhibition) at 1uM": 6.87},
      {"smiles": "CCOC(=O)c1cc2c(=O)n3cccc(C)c3nc2n(CC(C)C)c1=NC(=O)c1ccco1", "hERG current change (%, negative = inhibition) at 1uM": -64.7},
      {"smiles": "Cc1nn(C)c(C)c1C1C(C#N)=C(N)OC2=C1C(=O)CCC2", "note": "(stereo not shown)", "hERG current change (%, negative = inhibition) at 1uM": 8.81},
      {"smiles": "CCc1ccc(Nc2ccc(C(N)=O)cc2[N+](=O)[O-])cc1", "hERG current change (%, negative = inhibition) at 1uM": 12},
      {"smiles": "CC1(C)CC2(CC(C)(C(=O)CSc3nc4ccccc4s3)OC2=O)C(=O)O1", "note": "(stereo not shown)", "hERG current change (%, negative = inhibition) at 1uM": 6.11},
      {"smiles": "CCCNC(=O)CN1C(=O)NC(Cc2c[nH]c3ccccc23)C1=O", "note": "(stereo not shown)", "hERG current change (%, negative = inhibition) at 1uM": 6.14},
      {"smiles": "CN1c2ccccc2Oc2ccccc21.[O-][Cl+3]([O-])([O-])[O-]", "hERG current change (%, negative = inhibition) at 1uM": 4.62},
      {"smiles": "O=C(O)c1ccccc1S(=O)(=O)c1ccccc1CO", "hERG current change (%, negative = inhibition) at 1uM": 9.61},
      {"smiles": "COc1ccc2nc(SCC(=O)NCC3CCCO3)c(C#N)cc2c1", "note": "(stereo not shown)", "hERG current change (%, negative = inhibition) at 1uM": 21.4},
      {"smiles": "CCOc1cc(C=O)cc(Cl)c1OCC(N)=O", "hERG current change (%, negative = inhibition) at 1uM": 9.88},
      {"smiles": "COc1ccc([C@@]2(C(C)C)ON(c3ccccc3C(F)(F)F)C2=O)cc1", "hERG current change (%, negative = inhibition) at 1uM": 16},
      {"smiles": "Cc1nn(Cc2ccc(F)cc2)c(C)c1NC(=O)c1cnn2c1NC(c1cccs1)CC2C(F)(F)F", "note": "(stereo not shown)", "hERG current change (%, negative = inhibition) at 1uM": 5.29},
      {"smiles": "COc1ccc(-c2nc3ccccc3s2)cc1O", "hERG current change (%, negative = inhibition) at 1uM": -2.25},
      {"smiles": "COc1ccccc1N1CCN(c2ccc([N+](=O)[O-])cn2)CC1", "hERG current change (%, negative = inhibition) at 1uM": 9.69},
      {"smiles": "COc1ccc(N(CC(=O)Nc2ccc(F)c(F)c2)S(=O)(=O)c2c(C)n[nH]c2C)cc1", "hERG current change (%, negative = inhibition) at 1uM": 17.1},
      {"smiles": "CC(=O)Nc1ccc(SCC(=O)c2c(N)n(Cc3ccccc3)c(=O)n(C)c2=O)cc1", "hERG current change (%, negative = inhibition) at 1uM": 13.6},
      {"smiles": "Cc1ccc(OCC(=O)N/N=C2/SCC(=O)N2Cc2ccco2)cc1", "hERG current change (%, negative = inhibition) at 1uM": 0.387},
      {"smiles": "CC1CCN(C(=O)C2COc3ccccc3O2)CC1", "note": "(stereo not shown)", "hERG current change (%, negative = inhibition) at 1uM": 8.71},
      {"smiles": "c1coc(CNc2nc3nonc3nc2NCc2ccco2)c1", "hERG current change (%, negative = inhibition) at 1uM": -9.99},
      {"smiles": "Cl.c1ccc2c(NCC3CCCO3)nc(N3CCOCC3)nc2c1", "note": "(stereo not shown)", "hERG current change (%, negative = inhibition) at 1uM": -12.3},
      {"smiles": "CC(=O)[C@@]1(O)CCC2C3C=CC4=CC(=O)CC[C@]4(C)C3CC[C@@]21C", "note": "(stereo partly shown)", "hERG current change (%, negative = inhibition) at 1uM": -4.5},
      {"smiles": "Cc1cc(=O)[nH]c(SCC(=O)Nc2ccccc2[N+](=O)[O-])n1", "hERG current change (%, negative = inhibition) at 1uM": 9.89},
      {"smiles": "O=C(NCc1cccs1)c1cc(-c2ccccc2)on1", "hERG current change (%, negative = inhibition) at 1uM": 0.848},
      {"smiles": "COc1cc(NC(=O)CSc2nc3ccccc3cc2Cc2ccccc2)cc(OC)c1", "hERG current change (%, negative = inhibition) at 1uM": 11.5},
      {"smiles": "CSCCC(NC(=O)OC(C)(C)C)C(=O)NC(C(=O)NC(CC(C)C)C(N)=O)C(C)C", "note": "(stereo not drawn) (Boc-Met-Val-Leu-NH2; configuration not given here)", "hERG current change (%, negative = inhibition) at 1uM": 10.6},
      {"smiles": "COc1ccc(N2CCN(CCNC(=O)Nc3cc(Cl)ccc3OC)CC2)cc1", "hERG current change (%, negative = inhibition) at 1uM": 5.47}
    ]}
  ]
}
